Patent US11147272B2, “Pyridone compounds and agricultural and horticultural fungicides comprising the same as active ingredients” (MITSUI CHEMICALS AGRO, INC., priority 2017, dated 2021)

System: Colletotrichum orbiculare
Assay: Test Example H: Anthracnose on cucumber
Settings: 250 ppm drug solution sprayed (2.5 ml/pot), cucumber Sagami Hanjiro, 6 to 10 days after inoculation

SMILES	Test H control value
CCn1c(-c2c(F)cccc2F)c(C(C)(O)C(C)C)cc(Br)c1=O (centres unmarked) [compound 522]	H (more than 50% control value)
CCn1c(-c2c(F)cccc2F)c(C(C)(OC)C(C)C)cc(Br)c1=O (centres unmarked) [compound 523]	H (more than 50% control value)
